Source: a compilation of properties of binary mixtures (doi:10.1039/c2cc30374d)
The densities may have been worked out from excess volumes.

Experiment: xn = mol fraction of the nth substance listed
Details: 101 kPa

[N-]=C=S.[NH4+] + CC(=O)[O-].CC[n+]1ccn(C)c1
mass density [kg/m3]
Details	298.15 K	303.15 K	308.15 K	313.15 K	318.15 K	323.15 K	328.15 K	333.15 K
x1 = 0.02	1101.5	1098.4	1095.4	1092.3	1089.3	1086.3	1083.2	–
x1 = 0.1002	1104.5	–	1098.3	1095.2	1092.1	1089	–	–
x1 = 0.1998	1107.1	–	–	1097.7	–	1091.2	1087.9	–
x1 = 0.2514	1106.9	1103.8	–	1097.4	1094.2	1091	1087.7	1084.3
x1 = 0.3001	–	–	1101	1097.9	1094.6	1091.4	1088	–
x1 = 0.3199	–	1104.3	1101.1	1098	1094.7	1091.5	–	1084.7
x1 = 0.3413	1108	1104.8	–	–	1095.4	1092.1	1088.8	1085.4

CCOS(=O)(=O)[O-].CC[n+]1ccn(C)c1 + [N-]=C=S.[NH4+]
x2 = 0
Details	mass density [kg/m3]
298.15 K	1236.5
303.15 K	1233.1
308.15 K	1229.7
313.15 K	1226.4
318.15 K	1223
323.15 K	1219.6
328.15 K	1216.3
333.15 K	1213

[N-]=C=S.[NH4+] + CCOS(=O)(=O)[O-].CC[n+]1ccn(C)c1
mass density [kg/m3]
Details	298.15 K	303.15 K	308.15 K	313.15 K	318.15 K	323.15 K	328.15 K	333.15 K
x1 = 0.0235	–	1232.6	1229.2	1225.9	1222.6	1219.3	1216	–
x1 = 0.1553	1230.4	1227.1	1223.9	1220.7	1217.5	1214.3	1211.1	1207.9
x1 = 0.3025	–	1218.8	–	1212.6	1209.6	1206.5	1203.5	–
x1 = 0.4042	1216.3	1213.2	–	1207.1	1204.1	1201.1	1198.2	–
x1 = 0.5205	1212.6	1209.5	1206.4	1203.4	–	1197.5	1194.6	1191.6
x1 = 0.565	1212.6	–	1206.4	1203.4	–	–	1194.4	1191.5
x1 = 0.5997	1212.6	1209.3	1206.3	–	1200.3	1197.3	1194.3	–

CC(=O)[O-].CC[n+]1ccn(C)c1 + [N-]=C=S.[NH4+]
x2 = 0
Details	mass density [kg/m3]
298.15 K	1100.8
303.15 K	1097.8
308.15 K	1094.8
318.15 K	1088.7
323.15 K	1085.7
328.15 K	1082.7
333.15 K	1079.7
